{
  "source": "PubChem BioAssay AID2101",
  "about": "(National Center for Advancing Translational Sciences (NCATS), 2009)",
  "note": "Out of some 330,000 compounds screened, about 300 (0.091%) were called active. This list was built around the results that the source calls inconclusive (neither active nor inactive); the mix of calls is not that of the screen. Calls come from the whole dose curve; as a rule, active = well fitted inhibition curve with a large enough effect; inconclusive = small, poorly fitted or top-dose-only effect, or effect the other way, or another doubt; inactive = no such curve, though single readings can be large or run the other way. Potencies of inconclusive entries are left out as doubtful fits. Potency is the fitted concentration of half-maximal effect.",
  "data": [
    {"biological_target": "Lysosomal acid glucosylceramidase (Homo sapiens) (UniProt P04062)", "assay": "qHTS Assay for Inhibitors and Activators of N370S glucocerebrosidase as a Potential Chaperone Treatment of Gaucher Disease;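 for activity change, negative = inhibition: 0% = full enzyme activity and -100% = no enzyme basal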", "details": "N370S GC spleen homogenate, 4MU-glucoside fluorescence; activity change, negative = inhibition: at 59.4 µM (top of the series) unless noted", "values": [
      {"smiles": "Cc1ccc2cc(CN(c3ccc(C)c(C)c3)S(C)(=O)=O)c(=O)[nH]c2c1", "Potency": "inconclusive [activator, partial curve]"},
      {"smiles": "CCOc1ccc(CNS(=O)(=O)c2ccc3c(c2)CC(=O)N3C)cc1", "Potency": "inconclusive [inhibitor, single point]"},
      {"smiles": "Cc1csc(NC(=O)/C=C/c2ccc(C)o2)n1", "Potency": "inactive"},
      {"smiles": "O=[N+]([O-])c1ccc(N/N=C/c2cccc(O)c2O)cc1", "Potency": "inactive"},
      {"smiles": "Oc1ccc(/C=N/Nc2nc(-c3ccccc3F)nc3ccccc23)c(O)c1", "Potency": "inconclusive [inhibitor, single point]"},
      {"smiles": "O=C(Oc1c(-c2ccccc2)c(=O)n2c3c(cccc13)CC2)c1ccccc1", "Potency": "inconclusive [activator, full curve]"},
      {"smiles": "Cn1cc(C(=O)c2ccccc2C(=O)O)cc1C(=O)C(Cl)(Cl)Cl", "Potency": "inconclusive [inhibitor, single point]"},
      {"smiles": "CSc1ccccc1NC(=O)CN(C1CCCCC1)S(C)(=O)=O", "Potency": "inconclusive [activator, partial curve]"},
      {"smiles": "CCOC(=O)c1cccnc1SCC(=O)N(C)c1ccccc1", "Potency": "inactive"},
      {"smiles": "O=C(CSc1nc2ccccc2c(=O)n1CC1CCCO1)Nc1ccc(F)cc1", "note": "(stereo not given)", "Potency": "inconclusive [activator, single point]"},
      {"smiles": "CCCCCCc1cc2cc(S(=O)(=O)c3ccc(C)cc3)c(=O)oc2cc1O", "Potency": "inconclusive [activator, partial curve]"},
      {"smiles": "CCN(CC)S(=O)(=O)c1ccc(N2CCOCC2)c(NC(=O)C(C)(C)C)c1", "Potency": "inconclusive [activator, single point]"},
      {"smiles": "COc1ccc(CNc2ccnc(-c3cccnc3)n2)c(OC)c1", "Potency": "inconclusive [inhibitor, partial curve]"},
      {"smiles": "COc1cccc(-c2nccc(NCCc3c[nH]c4ccc(OC)cc34)n2)c1", "Potency": "inconclusive [inhibitor, partial curve]"},
      {"smiles": "O=C(COc1ccccc1[N+](=O)[O-])NCCC1=CCCCC1", "Potency": "inconclusive [activator, full curve]"},
      {"smiles": "Cc1nc2nc[nH]n2c(=O)c1NC(=O)c1c(-c2ccccc2Cl)noc1C", "activity change, negative = inhibition": "inconclusive: 30.3% [activator]"},
      {"smiles": "COc1ccc(C2=NNC(c3cc(Cl)cc4c3OCOC4)C2)c(O)c1", "note": "(stereo not given)", "Potency": "inconclusive [activator, partial curve]"},
      {"smiles": "COC(=O)c1ccc(COc2ccccc2/C=N/O)o1", "Potency": "inconclusive [inhibitor, single point]"},
      {"smiles": "O=C(/C=C/c1cccc([N+](=O)[O-])c1)c1cccs1", "Potency": "inactive"},
      {"smiles": "COc1ccc(NC(=O)N2CCCC(c3nc(-c4ccc(C(C)C)cc4)no3)C2)cc1", "note": "(stereo not given)", "activity change, negative = inhibition": "inconclusive: 32.1% [activator]"},
      {"smiles": "Cc1ccc2nc(SCC(=O)NCc3ccco3)c(C)cc2c1", "Potency": "inconclusive [activator, partial curve, poor fit]"},
      {"smiles": "CC1CC(C)CN(CCCNC(=O)c2cc3c(s2)-c2ccccc2OC3)C1", "note": "(stereo not given)", "Potency": "inconclusive [activator, partial curve]"},
      {"smiles": "CCn1c(O)c(C=Nc2ccccc2)sc1=S", "Potency": "inactive"},
      {"smiles": "Cc1ccc(N2C(=O)C(CN3CCCC3)C2c2ccccc2)cc1", "note": "(stereo not given)", "Potency": "inconclusive [inhibitor, single point]"},
      {"smiles": "Cc1cccc(C2=NN(c3ccccc3)[C@H](CO)[C@H]2c2ccccc2)c1", "Potency": "inconclusive [activator, partial curve]"},
      {"smiles": "O=[N+]([O-])c1ccc(NC(=S)NCC(c2cccnc2)N2CCOCC2)cc1", "note": "(stereo not given)", "Potency": "inconclusive [inhibitor, single point]"},
      {"smiles": "Cc1c(C(=O)Nc2ccccc2Cl)oc2ccc(S(=O)(=O)N3CCC4(CC3)OCCO4)cc12", "Potency": "inconclusive [inhibitor, single point]"},
      {"smiles": "O=S(=O)(Nc1ccc(S(=O)(=O)Nc2cccc3ccccc23)cc1)c1ccccc1", "Potency": "inconclusive [activator, partial curve]"},
      {"smiles": "Fc1ccc(/C=C/c2nnc(-c3cccs3)o2)cc1", "Potency": "inactive"},
      {"smiles": "COc1ccc(Cn2c(=O)sc3ccccc3c2=O)cc1", "Potency": "inconclusive [activator, single point]"},
      {"smiles": "CC(=O)Nc1ccc(S(=O)(=O)N(C)CC(=O)OCC(=O)N2CC(C)OC(C)C2)cc1", "note": "(stereo not given)", "Potency": "inconclusive [inhibitor, single point]"},
      {"smiles": "Cc1ccc(NC(=O)CSc2n[nH]c(-c3cccnc3)n2)cc1Cl", "Potency": "inconclusive [activator, single point]"},
      {"smiles": "C=CCOc1ccc(-c2nc3c(c(=O)[nH]c(=O)n3Cc3ccccc3)n2CCCOC)cc1", "Potency": "inconclusive [activator, single point]"},
      {"smiles": "CCN(CC)CCCNC(=O)c1[nH]c2ccccc2c1Sc1ccc(Cl)cc1", "Potency": "inconclusive [inhibitor, single point]"},
      {"smiles": "Cc1c(CCC(=O)O)c(=O)oc2cc(O)ccc12", "Potency": "inconclusive [activator, partial curve]"},
      {"smiles": "Cc1ccc(-n2nc(C)c(Sc3ccccc3[N+](=O)[O-])c2N)cc1", "Potency": "inconclusive [inhibitor, partial curve]"},
      {"smiles": "CCCCN(CC)C(=O)c1cc2c(=O)n3cccc(C)c3nc2s1", "Potency": "inconclusive [activator, single point]"},
      {"smiles": "Cc1[nH]c2ccccc2c1/C=N/NC(=O)c1cccc(F)c1", "Potency": "inconclusive [activator, partial curve]"},
      {"smiles": "O=C(Nc1ccc(S(=O)(=O)Nc2ncccn2)cc1)c1cc([N+](=O)[O-])ccc1Cl", "Potency": "inconclusive [inhibitor, single point]"},
      {"smiles": "Cc1cc2c(=O)n(C)c(SCC(=O)c3cc4ccccc4o3)nc2s1", "Potency": "inconclusive [activator, partial curve]"},
      {"smiles": "Cc1ccc(-c2noc(CSc3nnc(Cc4cccs4)n3-c3ccccc3)n2)cc1", "Potency": "inconclusive [activator, single point]"},
      {"smiles": "O=C(NCc1ccccc1)c1csc2c1CCCCC2", "Potency": "inconclusive [activator, partial curve]"},
      {"smiles": "O=C(O)C[C@@H](CNC(=O)COc1ccc2ccc(=O)oc2c1)c1ccc(Cl)cc1", "Potency": "inconclusive [activator, single point]"},
      {"smiles": "O=C(Nc1ccc(Cl)cc1)N1CCC(c2ccccc2)C1", "note": "(stereo not given)", "Potency": "inactive"},
      {"smiles": "COc1ccc(NC(=O)N(CCc2ccccc2)Cc2cc3c(C)cc(C)cc3[nH]c2=O)cc1", "Potency": "inconclusive [activator, partial curve]"},
      {"smiles": "CCC(Oc1ccc(Br)cc1Cl)C(=O)Nc1nnc(C2CC2)s1", "note": "(stereo not given)", "Potency": "inconclusive [activator, partial curve]"},
      {"smiles": "Cn1c(NC(=O)Cc2ccc(F)cc2)cc(=O)n(C)c1=O", "Potency": "inconclusive [inhibitor, partial curve, poor fit]"},
      {"smiles": "CN(C)c1nc(N(C)C)nc(N(C#N)CCOc2ccccc2)n1", "Potency": "inconclusive [activator, partial curve]"},
      {"smiles": "COc1ccccc1CNC(=O)c1cnn2c(C(F)F)cc(C)nc12", "Potency": "inconclusive [activator, partial curve, poor fit]"},
      {"smiles": "COc1ccc(NC(=O)COC(=O)C2C3CC4OC(=O)C2C4C3)cc1", "note": "(stereo not given)", "Potency": "inconclusive [activator, single point]"},
      {"smiles": "O=C1C(=C(O)c2ccccc2)C(=O)c2ccccc21", "Potency": "inconclusive [inhibitor, partial curve]"},
      {"smiles": "COC(=O)c1c(NC(=O)COC(=O)CCNS(=O)(=O)c2ccc(NC(C)=O)cc2)sc(C)c1C", "Potency": "active: 8.91 µM"},
      {"smiles": "O=C(N/N=C/C(Cl)=C\\c1ccccc1)c1cnccn1", "Potency": "inactive"},
      {"smiles": "NCC(c1ccc(Cl)cc1Cl)c1c[nH]c2ccccc12", "note": "(stereo not given)", "Potency": "inconclusive [inhibitor, partial curve]"},
      {"smiles": "CCCOc1ccc(C2C(C(=O)OC)=CN(CCOC)C=C2C(=O)OC)cc1", "Potency": "inconclusive [activator, partial curve]"},
      {"smiles": "COc1ccc(-c2c(C)c3ccc(O)cc3oc2=O)cc1OC", "Potency": "inconclusive [activator, partial curve]"},
      {"smiles": "CC(C)(C)C1CCC2(CC1)C(C#N)=C(SCC(=O)Nc1ccccc1)NC(=O)C2C#N", "note": "(stereo not given)", "Potency": "inconclusive [inhibitor, single point]"},
      {"smiles": "O=C(CCl)Nc1ccc2c(c1)OCO2", "Potency": "inconclusive [inhibitor, single point]"},
      {"smiles": "Cc1nnc2n(Cc3ccccc3)c(=O)c3c4c(sc3n12)COC(C(C)C)C4", "note": "(stereo not given)", "Potency": "inconclusive [inhibitor, partial curve]"},
      {"smiles": "N#C/C(C(=O)NCc1ccco1)=C1/SC=C(c2ccccc2)N1c1ccccc1", "Potency": "inconclusive [activator, full curve]"},
      {"smiles": "Cn1c(N)c(N=Nc2ccc(S(N)(=O)=O)cc2)c(=O)n(C)c1=O", "Potency": "inconclusive [inhibitor, single point]"},
      {"smiles": "C/C(=N/Nc1ccc(C)cc1)C1(C)N(O)C(C)(C)C(c2ccco2)=[N+]1[O-]", "note": "(stereo not given)", "Potency": "inconclusive [inhibitor, partial curve, poor fit]"},
      {"smiles": "Cc1nonc1OC(C)CNc1ccc([N+](=O)[O-])cc1", "note": "(stereo not given)", "Potency": "inactive"},
      {"smiles": "CCOc1ccc2c(c1)n([O-])c1c([n+]2=O)CCCC1", "Potency": "inactive"},
      {"smiles": "CC12CCC(C(=O)Nc3nc4ccc(Br)cc4s3)(OC1=O)C2(C)C", "note": "(stereo not given)", "Potency": "inconclusive [activator, single point]"}
    ]}
  ]
}
